# In all, about 320,000 compounds went through this assay and about 9,100 (2.8%) were called active. The inconclusive results got no clear call from the source; some entries with a clear call stand among them for comparison. The call rests on the fitted dose curve; in most records, active means well fitted activation curve with a large enough effect; inconclusive means small, poorly fitted or top-dose-only effect; inactive means no such curve, though single readings can be large or run the other way. No potency is given beside an inconclusive call; the fits are too rough.
# Test: qHTS Assay for Rab9 Promoter Activators; further: nearly all actives have a fitted effect of over 60% in size
# Conditions: Huh7 Rab9 promoter-luciferase reporter, luminescence, 24 h; series mostly up to 9.22 µM
# In short: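 Measured in stably transfected Huh7 cells bearing a Rab9 promoter–luciferase construct: 24 h compound treatment at 37 °C, followed by luminescence detection.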
# Potency means the concentration at half of the fitted maximal effect; tags describe the fitted curve by direction and shape.
row,SMILES,Potency
1,FC(F)(F)Oc1ccc(Nc2nc3ccccc3o2)cc1,"inconclusive [activator, single point]"
2,O=C(N/N=C/c1cccnc1)c1cc(-c2cccs2)nc2ccccc12,inactive
3,COc1ccc(NC(=O)c2ccccc2F)cc1Cl,active: 2.24 µM
4,Cc1ccc(OCC(=O)NNC(=S)NC(=O)C2CC2)c(C)c1,inactive
5,COc1ccc(Nc2ccccc2C(=O)O)cc1,inactive
6,CCOC(=O)c1snc(C(=O)NC2CCCCC2)c1N,active: 3.55 µM
7,Cc1cccc(NC(=O)c2ccc(C(=O)c3ccccc3)cc2)n1,"inconclusive [activator, partial curve]"
8,COc1ccccc1P(=O)(c1ccccc1)c1ccc([N+](=O)[O-])cc1 (stereo not given),inactive
9,S=C(N/N=C/c1ccc2c(c1)OCO2)NC1CC2CCC1C2 (stereo not given),"inconclusive [activator, single point]"
10,CCN1CCN(C(=O)c2cc3ccc(OC)cc3[nH]2)CC1,"inconclusive [activator, single point]"
11,CSc1ccccc1OCc1cc(C(=O)NCCc2ccco2)no1,"inconclusive [activator, partial curve]"
12,Nc1c(Cl)ncnc1N/N=C/c1ccnc2ccccc12,"inconclusive [activator, partial curve]"
13,COc1cc(-c2nnc(COC(=O)CSc3cc(C)c4ccccc4n3)o2)cc(OC)c1OC,inactive
14,CCOc1ccc(NC(=O)CSc2ccc(-c3ccccn3)nn2)cc1,inactive
15,CC(C)(C)C(=O)NNc1nc(-c2ccccc2)c2cc(Br)ccc2n1,inactive
16,COc1ccc(/C(N)=N/OC(=O)c2ccc(Br)o2)cc1,"inconclusive [activator, partial curve]"
17,COc1cccc(-c2cc(C(=O)NCCCn3ccnc3)no2)c1,"inconclusive [activator, single point]"
18,Cc1cccc(C)c1Nc1ncnc2ccccc12,inactive
19,CCc1nnc(NC(=O)c2cccc(NC(=O)C(C)C)c2)s1,"inconclusive [activator, partial curve]"
20,CCOc1cc(NC(=O)c2ccco2)c(OCC)cc1NC(=O)Cc1ccc(OC)c(OC)c1,inactive
21,CCOC(=O)N/N=C/c1c(C)nn(-c2ccccc2Cl)c1Cl,"inconclusive [activator, single point]"
22,O=C(c1ccco1)N1CCN(c2ncnc3c2oc2ccccc23)CC1,inactive
23,c1ccc2c(c1)[nH]c1c3ccccc3sc21,"inconclusive [activator, partial curve]"
24,CS(=O)(=O)c1ccccc1-c1nnc(NC(=O)c2ccco2)o1,inactive
25,CCCCOC(=O)c1ccc(NC(=O)C2CCCO2)cc1 (stereo not given),"inconclusive [activator, single point]"

row,SMILES,Potency
1,Cc1ccc(OCC(=O)OCC(=O)NC2CC2)cc1C,inactive
2,Cc1cc(=O)[nH]c(N/N=C/c2ccc(-c3ccc(F)cc3)o2)n1,"inconclusive [activator, single point]"
3,CC(C)CN1C(=O)c2ccc(NC(=O)c3cccs3)cc2C1=O,"inconclusive [activator, partial curve, poor fit]"
4,CCc1ccc(NC(=O)c2cc(Br)ccc2Br)cc1,"inconclusive [activator, single point]"
5,Cc1cc(-c2csc(N)n2)c(C)n1-c1ccccc1,"inconclusive [activator, single point]"
6,CC(C)(C)OC(=O)NCC12C=CC(O1)C1C(=O)N(Cc3ccccc3)C(=O)C12 (stereo not given),inactive
7,O=C(Nc1ccc(NC(=O)c2ccco2)cc1)c1cnccn1,"inconclusive [activator, partial curve]"
8,O=C(CCN1C(=O)/C(=C/C=C/c2ccccc2)SC1=S)Nc1cccnc1,"inconclusive [activator, single point]"
9,Cc1cn(CCC(=O)Nc2ccccc2N2CCOCC2)c2ccccc12,"inconclusive [activator, single point]"
10,O=C(O)CSc1nnc(-c2ccccc2)c(-c2ccccc2)n1,inactive
11,CCOC(=O)C1=C(C)NC(C)=C(C(=O)OCC)C1c1c(F)c(F)c(F)c(F)c1F,inactive
12,CCN(CCn1cccn1)C(=O)c1cc(COc2ccccc2SC)on1,active: 3.55 µM
13,COc1ccc(/C=C/C(=O)Nc2ccccc2C(F)(F)F)cc1,"inconclusive [activator, single point]"
14,COc1cc(NC(=O)COC(=O)Cc2ccc(-c3ccccc3)cc2)cc(OC)c1,inactive
15,Oc1ccc(Br)cc1C=Nc1cccn2cc(-c3ccccc3)nc12,"inconclusive [activator, partial curve]"
16,CC(=O)c1ccc(NC(=O)CCc2nnc3ccc(NCc4ccco4)nn23)cc1,"inconclusive [activator, partial curve]"
17,CC(=O)c1sc(-c2ccc(Cl)cc2)nc1C,"inconclusive [activator, single point]"
18,CCCCNC(=S)Nc1ccc(C(F)(F)F)cc1,inactive
19,Cc1ccc(S(=O)(=O)CCC(=O)N(CCN2CCOCC2)c2nc3ccccc3s2)cc1,"inconclusive [activator, partial curve]"
20,CCS(=O)(=O)n1nc(-c2ccc(Cl)cc2)nc1SCc1ccccc1,"inconclusive [activator, single point]"
21,Cc1ccc(NC(=O)CCc2c(C)nn(-c3ccc(N4CCCCC4)nn3)c2C)cc1,"inconclusive [activator, partial curve]"
22,Cc1cc(C(=O)CN2C(=O)NC3(CCCCCC3)C2=O)c(C)n1C,"inconclusive [activator, single point]"
23,Cc1nc(NC(=O)c2cc3ccccc3o2)sc1C,"inconclusive [activator, full curve]"
24,Cc1ccc(-n2nnnc2SCC(=O)Nc2ccccc2N2CCCCC2)cc1C,inactive
25,O=c1c(/C=C(\O)c2ccc(F)cc2)nc2ccccc2n1-c1ccccc1,"inconclusive [activator, single point]"

row,SMILES,Potency
1,Fc1cccc2sc(Nc3nc4c(F)cccc4s3)nc12,"inconclusive [activator, single point]"
2,NC(=O)c1ccccc1N/C=C/C(=O)c1ccc(Cl)cc1,active: 0.398 µM
3,CN(C)c1ccc(NC(=O)CN2CCc3ccccc3C2)cc1,"inconclusive [activator, single point]"
4,Cc1ccc(OCCN2C(=O)c3ccccc3C2=O)c([N+](=O)[O-])c1,inactive
5,c1ccc2c(c1)oc1c(Nc3ccc(CN4CCOCC4)cc3)ncnc12,"inconclusive [activator, partial curve]"
6,Cc1nc2c(N=Nc3ccccc3F)c(N)nn2c(N)c1C#N,"inconclusive [activator, partial curve]"
7,Cc1nc2ncnn2c(N2CCN(C(=O)c3cccc(F)c3)CC2)c1Cc1ccccc1,"inconclusive [activator, single point]"
8,COc1ccc(/C=N/NC(=O)CCN2CCCCC2c2cccnc2)cc1Cn1cc([N+](=O)[O-])cn1 (stereo not given),inactive
9,Cc1oc(-c2ccccc2)nc1C(=O)Nc1nccs1,"inconclusive [activator, partial curve]"
10,CCCc1cc(C(=O)Nc2ccc(F)cc2F)no1,"inconclusive [activator, single point]"
11,COc1cccc(C(=O)Cn2c(Br)nc3c2c(=O)n(C)c(=O)n3C)c1,inactive
12,O=C(CSc1nnc(-c2ccco2)n1Cc1ccccc1)c1ccc(F)cc1,"inconclusive [activator, partial curve]"
13,O=C(NCCc1cccs1)C1CC(c2ccccc2[N+](=O)[O-])=NO1 (stereo not given),"inconclusive [activator, single point]"
14,O=C(CSc1cn(Cc2ccccc2)c2ccccc12)Nc1nccs1,active: 2.51 µM
15,c1ccc(CNc2nc3ccccc3[nH]2)cc1,"inconclusive [activator, single point]"
16,O=C(O)c1cc(/C=C/c2ccc(N3CCOCC3)c([N+](=O)[O-])c2)nc2ccccc12,"inconclusive [activator, single point]"
17,CC1CCCN(C(=O)CNC(=O)c2cccs2)C1 (stereo not given),"inconclusive [activator, partial curve]"
18,Cc1nn(Cc2cccc(F)c2)c(C)c1NC(=O)c1ccc(COc2ccccc2Cl)cc1,inactive
19,COc1cccc(C(=O)Nc2ccccc2F)c1,"inconclusive [activator, single point]"
20,Cc1c(Br)c([N+](=O)[O-])nn1CCCC(=O)N1CCN(c2ccccc2)CC1,"inconclusive [activator, single point]"
21,O=C(CSCc1ccc(Br)cc1)NC1CC1,"inconclusive [activator, single point]"
22,C=CCNc1nc(N)c(C(=O)c2ccc3c(c2)OCO3)s1,"inconclusive [activator, single point]"
23,CCCCN(C)C(=O)CCC(=O)Nc1ccc2nc(N3CCOCC3)cc(C)c2c1,"inconclusive [activator, partial curve]"
24,O=C(N/N=C/c1c[nH]c2ccccc12)c1ccn(Cc2ccc(Cl)cc2Cl)n1,inactive
25,COc1ccc(C(=O)Nc2ccc3c(c2)OCCO3)cc1Br,active: 1.26 µM
